Assay in all cases: cell-based or functional assay
Experiment [1] concerns the target Glucagon receptor.
The target of experiment [2] is T1, human GLP-1 receptor (human, UniProt P43220).
For experiment [3], the target named is Glucagon receptor. This is another data set of the same source.
Experiment [4] has as its target T1, human GLP-1 receptor. The source holds these as a separate data set.
In experiment [5] the target is FGFR/β-Klotho receptor complex.

Where two headings read alike, the source gives them in different places.

B1: C368L10F4 (Fc fusion)
chain: HSQGTFTSDYSKYLDEQAAQDFVQWLMNTGPSSGAPPPSGGGGAGGGGAGGGGA[human IgG1 Fc with changes omitted here]
On to B1, for which the “GCGR agonist activity EC50 (luciferase reporter)” value (shortened to “GCGR agonist activity EC50”) in the experiment with Glucagon receptor [1] was 1.42 nM. Also, the “GLP-1R agonist activity EC50 (luciferase reporter)” value (“GLP-1R agonist activity EC50” below) with human GLP-1 receptor [2] turned out to be 1.72 nM.

B2: C488 L9F9L9M2 (Fc fusion)
chain: HSQGTFTSDLSKYLEGQAAQDFVQWMNTGPSSGAPPPSGGGGSGGGGSGGGGS[human IgG4 Fc with S228P F234A L235A (EU numbers) omitted here]GGGGSGGGGSGGGGSHPIPDSSPLLQFGGQVRQRYLYTDDAQQTEAHLEIREDGTVGGAADQSPESLLQLKALKPGVIQILGVKTSRFLCQRPDGALYGSLHFDPEACSFRERLLEDGYNVYQSEAHGLPLHCPGNKSPHRDPAPRGPCRFLPLPGLPPALPEPPGILAPQPPDVGSSDPLSMVGGSQGRSPSYES
As for B2, the “GCGR agonist activity EC50” value with Glucagon receptor [3] was 1.34 nM. The “GLP-1R agonist activity EC50” value with human GLP-1 receptor [4] was found to be 1.71 nM. In experiment [5], the “FGF21 activity EC50 (luciferase reporter)” value (“FGF21 activity EC50” below) stood at 0.73 nM.

B3: C654 L13F9L6M3 (Fc fusion)
chain: HSQGTFTSDYSKQLDSQRAQDFVQWLMNGGPSSGAPPPSGGGGSGGGGSGGGGSA[human IgG4 Fc with S228P F234A L235A (EU numbers) omitted here]GGGGAGGGGADSSPLLQFGGQVRQRYLYTDDAQQTEAHLEIREDGTVGGAADQSPESLLQLKALKPGVIQILGVKTSRFLCQRPDGALYGSLHFDPEACSFRELLLEDGYNVYQSEAHGLPLHCPGNKSPHRDPAPRGPCRFLPLPGLPPALPEPPGILAPQPPDVGSSDPLAMVGPSQGRSPSYAS
As to B3, the “GCGR agonist activity EC50” value with Glucagon receptor [3] amounted to 1.25 nM. Besides, the “GLP-1R agonist activity EC50” value with human GLP-1 receptor [4] is 1.53 nM. The “FGF21 activity EC50” value in experiment [5] was found to be 0.71 nM.

B4: C611 L11F4L11M11 (Fc fusion)
chain: HSQGTFTSDYSKYLDERAAQDFVQWLLDGPSSGAPPPSGGSGGGGSGGGGSGGA[human IgG1 Fc with changes omitted here]GSGGGGSGGGGSGGAHPIPDSSPLLQFGGQVRQRYLYTDDAQQTEAHLEIREDGTVGGAADQSPESLLQLKALKPGVIQILGVKTSRFLCQRPDGALYGSLHFDPEACSFRERLLEDGYNVYQSEAHGLPLHLPGNKSPHRDPAPRGPARFLPLPGLPPALPEPPGILAPQPPDVGSSDPLAMVGGSQGRSPSYES
Take B4: the “GCGR agonist activity EC50” value with Glucagon receptor [3] came to 1.39 nM. In the experiment with human GLP-1 receptor [4], the “GLP-1R agonist activity EC50” value was 1.1 nM. The “FGF21 activity EC50” value in experiment [5] came to 1.73 nM.

B5: C240L12F8 (Fc fusion)
chain: HSQGTFTSDYSKYLDERAAQDFVQWLMNGGPSSGAPPPSGGGGAGGGGAGGGGAA[human IgG4 Fc with S228P N297A (EU numbers) omitted here]
B5: in the experiment with Glucagon receptor [1], the “GCGR agonist activity EC50” value was 1.33 nM. Further, the “GLP-1R agonist activity EC50” value in the experiment with human GLP-1 receptor [2] stood at 1.46 nM.

B6: C618 L12F4L12M2 (Fc fusion)
chain: HSQGTFTSDLSKQMDSRAAQDFIEWLKNGGPSSGAPPPSGGGGAGGGGAGGGGAA[human IgG1 Fc with changes omitted here]GGGAGGGGAGGGGAAHPIPDSSPLLQFGGQVRQRYLYTDDAQQTEAHLEIREDGTVGGAADQSPESLLQLKALKPGVIQILGVKTSRFLCQRPDGALYGSLHFDPEACSFRERLLEDGYNVYQSEAHGLPLHCPGNKSPHRDPAPRGPCRFLPLPGLPPALPEPPGILAPQPPDVGSSDPLSMVGGSQGRSPSYES
As for B6, the “GCGR agonist activity EC50” value with Glucagon receptor [3] came out at 1.32 nM. For the same molecule, the “GLP-1R agonist activity EC50” value with human GLP-1 receptor [4] stood at 1.53 nM. For the same molecule, in experiment [5], the “FGF21 activity EC50” value was 0.78 nM.

B7: C549 L12F4L9M4 (Fc fusion)
chain: HSQGTFTSDVSKYLESRAAQDFVQWMNGGPSSGAPPPSGGGGAGGGGAGGGGAA[human IgG1 Fc with changes omitted here]GGGSGGGGSGGGGSHPIPDSSPLLQFGGQVRQRYLYTDDAQQTEAHLEIREDGTVGGAADQSPESLLQLKALKPGVIQILGVKTSRFLCQRPDGALYGSLHFDPEACSFRERLLEDGYNVYQSEAHGLPLHCPGNKSPHRDPAPRGPCRFLPLPGLPPALPEPPGILAPQPPDVGSSDPLAMVGGSQGRSPSYES
Turning to B7, the “GCGR agonist activity EC50” value with Glucagon receptor [3] was 1.44 nM. In the experiment with human GLP-1 receptor [4], the “GLP-1R agonist activity EC50” value turned out to be 1.92 nM. The “FGF21 activity EC50” value in experiment [5] amounted to 0.8 nM.

B8: C618 L13F7L13M1 (Fc fusion)
chain: HSQGTFTSDLSKQMDSRAAQDFIEWLKNGGPSSGAPPPSGGGGSGGGGSGGGGSA[human IgG4 Fc with S228P N297A (EU numbers) omitted here]GGGGSGGGGSGGGGSAHPIPDSSPLLQFGGQVRQRYLYTDDAQQTEAHLEIREDGTVGGAADQSPESLLQLKALKPGVIQILGVKTSRFLCQRPDGALYGSLHFDPEACSFRERLLEDGYNVYQSEAHGLPLHLPGNKSPHRDPAPRGPARFLPLPGLPPALPEPPGILAPQPPDVGSSDPLSMVGGSQGRSPSYES
As to B8, the “GCGR agonist activity EC50” value with Glucagon receptor [3] stood at 1.25 nM. Moreover, the “GLP-1R agonist activity EC50” value with human GLP-1 receptor [4] turned out to be 1.47 nM. In experiment [5], the “FGF21 activity EC50” value was 0.68 nM.

B9: C673 L8F3L8M8 (Fc fusion)
chain: HSQGTFTSDYSKYLDEEAAQDFIEWLKNTGPSSGAPPPSGGSGGGAGGGGS[human IgG1 Fc with changes omitted here]GGSGGGAGGGGSHPIPDSSPLLQFGGQVRQRYLYTDDAQQTEAHLEIREDGTVGGAADQSPESLLQLKALKPGVIQILGVKTSRFLCQRPDGALYGSLHFDPEACSFRERLLEDGYNVYQSEAHGLPLHLPGNKSPHRDPAPRGPARFLPLPGLPPALPEPPGILAPQPPDVGSSDPLSMVGGSQGRSPSAAS
As to B9, in the experiment with Glucagon receptor [3], the “GCGR agonist activity EC50” value was 1.44 nM. The “GLP-1R agonist activity EC50” value in the experiment with human GLP-1 receptor [4] is 1.92 nM. Also, the “FGF21 activity EC50” value in experiment [5] amounted to 1.01 nM.

B10: C487 L13F7L13M4 (Fc fusion)
chain: HSQGTFTSDLSKYLEGQAAQDFVQWMNGGPSSGAPPPSGGGGSGGGGSGGGGSA[human IgG4 Fc with S228P N297A (EU numbers) omitted here]GGGGSGGGGSGGGGSAHPIPDSSPLLQFGGQVRQRYLYTDDAQQTEAHLEIREDGTVGGAADQSPESLLQLKALKPGVIQILGVKTSRFLCQRPDGALYGSLHFDPEACSFRERLLEDGYNVYQSEAHGLPLHCPGNKSPHRDPAPRGPCRFLPLPGLPPALPEPPGILAPQPPDVGSSDPLAMVGGSQGRSPSYES
For the molecule B10, in the experiment with Glucagon receptor [3], the “GCGR agonist activity EC50” value was 1.47 nM. In addition, the “GLP-1R agonist activity EC50” value with human GLP-1 receptor [4] turned out to be 1.33 nM. The “FGF21 activity EC50” value in experiment [5] is 0.89 nM.

B11: C623 L9F3L10M1 (Fc fusion)
chain: HSQGTFTSDLSKQMDSREAQDFIEWLKNTGPSSGAPPPSGGGGSGGGGSGGGGS[human IgG1 Fc with changes omitted here]GGGGAGGGGAGGGGAHPIPDSSPLLQFGGQVRQRYLYTDDAQQTEAHLEIREDGTVGGAADQSPESLLQLKALKPGVIQILGVKTSRFLCQRPDGALYGSLHFDPEACSFRERLLEDGYNVYQSEAHGLPLHLPGNKSPHRDPAPRGPARFLPLPGLPPALPEPPGILAPQPPDVGSSDPLSMVGGSQGRSPSYES
With B11, the “GCGR agonist activity EC50” value in the experiment with Glucagon receptor [3] turned out to be 1.56 nM. The “GLP-1R agonist activity EC50” value with human GLP-1 receptor [4] was 1.88 nM. For the same molecule, in experiment [5], the “FGF21 activity EC50” value was 0.74 nM.

B12: C508 L7F4L9M3 (Fc fusion)
chain: HSQGTFTSDYSKYLEEEAVRLFIQWLMNGGPSSGAPPPSGGSGGGSGGGGS[human IgG1 Fc with changes omitted here]GGGSGGGGSGGGGSDSSPLLQFGGQVRQRYLYTDDAQQTEAHLEIREDGTVGGAADQSPESLLQLKALKPGVIQILGVKTSRFLCQRPDGALYGSLHFDPEACSFRELLLEDGYNVYQSEAHGLPLHCPGNKSPHRDPAPRGPCRFLPLPGLPPALPEPPGILAPQPPDVGSSDPLAMVGPSQGRSPSYAS
On to B12, for which, in the experiment with Glucagon receptor [3], the “GCGR agonist activity EC50” value came to 3.38 nM. For the same molecule, in the experiment with human GLP-1 receptor [4], the “GLP-1R agonist activity EC50” value is 5.45 nM. The “FGF21 activity EC50” value in experiment [5] is 0.67 nM.

B13: C555 L10F6L12M1 (Fc fusion)
chain: HSQGTFTSDLSKYLEEQAAQDFVQWMNGGPSSGAPPPSGGGGAGGGGAGGGGA[human IgG4 Fc with S228P (EU numbers) omitted here]GGGGAGGGGAGGGGAAHPIPDSSPLLQFGGQVRQRYLYTDDAQQTEAHLEIREDGTVGGAADQSPESLLQLKALKPGVIQILGVKTSRFLCQRPDGALYGSLHFDPEACSFRERLLEDGYNVYQSEAHGLPLHLPGNKSPHRDPAPRGPARFLPLPGLPPALPEPPGILAPQPPDVGSSDPLSMVGGSQGRSPSYES
Take B13: in the experiment with Glucagon receptor [3], the “GCGR agonist activity EC50” value worked out at 1.22 nM. Besides, the “GLP-1R agonist activity EC50” value with human GLP-1 receptor [4] was determined as 1.37 nM. In addition, in experiment [5], the “FGF21 activity EC50” value turned out to be 0.6 nM.

B14: C623 L9F8L9M2 (Fc fusion)
chain: HSQGTFTSDLSKQMDSREAQDFIEWLKNTGPSSGAPPPSGGGGSGGGGSGGGGS[human IgG4 Fc with S228P N297A (EU numbers) omitted here]GGGGSGGGGSGGGGSHPIPDSSPLLQFGGQVRQRYLYTDDAQQTEAHLEIREDGTVGGAADQSPESLLQLKALKPGVIQILGVKTSRFLCQRPDGALYGSLHFDPEACSFRERLLEDGYNVYQSEAHGLPLHCPGNKSPHRDPAPRGPCRFLPLPGLPPALPEPPGILAPQPPDVGSSDPLSMVGGSQGRSPSYES
Take B14: the “GCGR agonist activity EC50” value in the experiment with Glucagon receptor [3] was determined as 1.45 nM. Besides, the “GLP-1R agonist activity EC50” value in the experiment with human GLP-1 receptor [4] was determined as 1.93 nM. The “FGF21 activity EC50” value in experiment [5] turned out to be 0.88 nM.

B15: C563 L14F8L9M3 (Fc fusion)
chain: HSQGTFTSDYSSYLDEEAAQDFIEWLKNTGPSSGAPPPSGGGGAGGGGAGGGGAS[human IgG4 Fc with S228P N297A (EU numbers) omitted here]GGGGSGGGGSGGGGSDSSPLLQFGGQVRQRYLYTDDAQQTEAHLEIREDGTVGGAADQSPESLLQLKALKPGVIQILGVKTSRFLCQRPDGALYGSLHFDPEACSFRELLLEDGYNVYQSEAHGLPLHCPGNKSPHRDPAPRGPCRFLPLPGLPPALPEPPGILAPQPPDVGSSDPLAMVGPSQGRSPSYAS
For the molecule B15, the “GCGR agonist activity EC50” value with Glucagon receptor [3] was 1.25 nM. In the experiment with human GLP-1 receptor [4], the “GLP-1R agonist activity EC50” value came to 1.53 nM. In experiment [5], the “FGF21 activity EC50” value amounted to 0.77 nM.

The values are drawn from patent publication US20210070829A1 (ZHEJIANG DOER BIOLOGICS, published 2021).
